The text below walks through data of publication PMC4336329 (PLoS ONE, 2015).

About 2,200 (0.71%) of roughly 310,000 compounds showed an effect of 50% or more. The effect is printed as a negative number. Some of the results follow.

Chain of human ether-à-go-go-related gene (hERG) potassium channel (Q12809 whole entry, looked up): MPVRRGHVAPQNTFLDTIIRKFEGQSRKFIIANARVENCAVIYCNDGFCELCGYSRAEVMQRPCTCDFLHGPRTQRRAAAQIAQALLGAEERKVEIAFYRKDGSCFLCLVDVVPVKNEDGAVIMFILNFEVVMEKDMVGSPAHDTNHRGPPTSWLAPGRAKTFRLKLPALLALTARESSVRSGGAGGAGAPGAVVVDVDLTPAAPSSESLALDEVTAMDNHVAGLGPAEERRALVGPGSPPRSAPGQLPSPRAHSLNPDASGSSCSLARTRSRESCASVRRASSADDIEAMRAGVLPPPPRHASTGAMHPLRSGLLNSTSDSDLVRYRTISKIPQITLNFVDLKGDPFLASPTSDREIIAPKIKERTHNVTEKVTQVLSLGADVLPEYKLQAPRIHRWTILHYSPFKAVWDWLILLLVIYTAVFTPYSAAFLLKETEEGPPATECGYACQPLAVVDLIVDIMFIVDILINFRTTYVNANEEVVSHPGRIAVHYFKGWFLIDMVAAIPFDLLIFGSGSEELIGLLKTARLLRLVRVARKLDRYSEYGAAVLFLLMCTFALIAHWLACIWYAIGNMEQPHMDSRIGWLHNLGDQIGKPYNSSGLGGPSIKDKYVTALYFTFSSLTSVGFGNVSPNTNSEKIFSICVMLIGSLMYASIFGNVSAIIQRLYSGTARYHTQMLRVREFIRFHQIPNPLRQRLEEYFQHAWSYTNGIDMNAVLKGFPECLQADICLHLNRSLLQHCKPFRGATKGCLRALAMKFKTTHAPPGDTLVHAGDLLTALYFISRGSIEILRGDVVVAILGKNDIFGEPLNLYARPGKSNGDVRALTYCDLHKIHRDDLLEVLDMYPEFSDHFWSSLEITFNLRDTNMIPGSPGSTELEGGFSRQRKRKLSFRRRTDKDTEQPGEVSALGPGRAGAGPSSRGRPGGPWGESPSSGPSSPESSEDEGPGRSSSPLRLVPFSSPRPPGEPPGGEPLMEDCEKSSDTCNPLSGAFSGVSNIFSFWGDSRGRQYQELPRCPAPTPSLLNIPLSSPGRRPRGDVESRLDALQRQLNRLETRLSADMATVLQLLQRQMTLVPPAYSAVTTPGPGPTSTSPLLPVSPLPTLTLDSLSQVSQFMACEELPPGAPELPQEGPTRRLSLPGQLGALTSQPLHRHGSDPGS

This assay concerns the target human ether-à-go-go-related gene (hERG) potassium channel (human, UniProt Q12809). Nature of the assay: primary screen, population patch clamp on CHO cells stably expressing hERG.
`Cc1ccc(C(c2nnnn2CCc2ccccc2)N2CCSCC2)cc1` (stereo not drawn): the “hERG current change (%, negative = inhibition) at 1uM” value was determined as 4.44%.

For the compound `CC(C)(CN1CCCC1)NC(=O)C1CCC(=O)N(CCCN2CCOCC2)C1` (stereo not drawn), the “hERG current change (%, negative = inhibition) at 1uM” value was 8.19%.

Regarding `Cc1cc(=O)[nH]c(=S)n1-c1ccccc1`, the “hERG current change (%, negative = inhibition) at 1uM” value amounted to 12.6%.

Regarding `COc1ccc(N2C(=O)CC(N3CCN(c4ccc(C(=O)c5cccnc5)cc4)CC3)C2=O)cc1` (stereo not drawn), the “hERG current change (%, negative = inhibition) at 1uM” value is given as -17.1%.

With `CCOC(=O)/C(=N\NC(=O)c1ccccc1)c1ccccc1`, the “hERG current change (%, negative = inhibition) at 1uM” value is on record as -4.53%.

Consider `CCOC(=O)N1CCN(C(=O)c2cn(C)c3ccc(S(=O)(=O)N4CCOCC4)cc3c2=O)CC1`, for which the “hERG current change (%, negative = inhibition) at 1uM” value came to 14.5%.

Consider `O=C(CN1CCN(CC(=O)Nc2ccccc2C(F)(F)F)CC1)Nc1ccccc1F`, for which the “hERG current change (%, negative = inhibition) at 1uM” value is listed as -15.1%.

Take `Nc1[nH]nc2nc(N3CCOCC3)nc(-c3ccccc3)c12`: the “hERG current change (%, negative = inhibition) at 1uM” value was -7.38%.

Regarding `COC(=O)c1ccc(Cn2cc([N+](=O)[O-])cn2)cc1`, the “hERG current change (%, negative = inhibition) at 1uM” value is 13.4%.

Take `Cc1ccccc1Nc1nnc(SCc2nc3ccccc3c(=O)[nH]2)s1`: the “hERG current change (%, negative = inhibition) at 1uM” value is on record as 9.2%.

Consider `COc1ccc(CC(=O)Nc2cccc(-c3cn4ccccc4n3)c2)cc1`, for which the “hERG current change (%, negative = inhibition) at 1uM” value is on record as -4.55%.

Consider `CCc1ccc(C2=NN(CCC(=O)NC(C)CCc3ccccc3)C(=O)CC2)cc1` (stereo not drawn), for which the “hERG current change (%, negative = inhibition) at 1uM” value was -0.87%.

Regarding `Cn1c(-c2cccc3ccccc23)n[nH]c1=S`, the “hERG current change (%, negative = inhibition) at 1uM” value worked out at 10.3%.

As for `CCCNC(=O)c1cccc(Cn2nc(C)c(Br)c2C)c1`, the “hERG current change (%, negative = inhibition) at 1uM” value was 13.1%.

On to `Cc1ccccc1OCCC(=O)Nc1c(C)n(C)n(-c2ccccc2)c1=O`, for which the “hERG current change (%, negative = inhibition) at 1uM” value is reported as 4.18%.

Consider `O=C(O)CCNS(=O)(=O)c1ccccc1`, for which the “hERG current change (%, negative = inhibition) at 1uM” value came out at 1.32%.

As for `COc1cccc(-c2noc(CCCC(=O)N3CCOCC3)n2)c1`, the “hERG current change (%, negative = inhibition) at 1uM” value is on record as -2.41%.

Take `COc1ccc(C2SCCN2C(=S)Nc2cccc(C(F)(F)F)c2)cc1` (stereo not drawn): the “hERG current change (%, negative = inhibition) at 1uM” value worked out at 11.7%.

In the case of `COc1ccc(C(=O)CSc2nnc(CCc3ccccc3)n2-c2ccccc2)cc1`, the “hERG current change (%, negative = inhibition) at 1uM” value came to 4.9%.

Consider `CCN(CC)S(=O)(=O)c1cc(C(=O)OCC(=O)NC(=O)c2cccn2C)ccc1C`, for which the “hERG current change (%, negative = inhibition) at 1uM” value is listed as 4.88%.

In the case of `Cc1ccc(C(C(=O)NCC2CCCO2)N(C(=O)c2snc(C(N)=O)c2N)c2ccccc2F)o1` (stereo not drawn), the “hERG current change (%, negative = inhibition) at 1uM” value is listed as -5.24%.

Take `COc1ccc(Cn2c(=N)c(C(=O)NC3CCCCC3)cc3c(=O)n4ccccc4nc32)cc1`: the “hERG current change (%, negative = inhibition) at 1uM” value was -5.89%.

Turning to `C=CCC(NC(=O)Cc1ccccc1)C(=O)NCCC` (stereo not drawn), the “hERG current change (%, negative = inhibition) at 1uM” value amounted to 15.3%.

For the compound `CCOCCN(C(=O)COC)c1cccc(OC)c1`, the “hERG current change (%, negative = inhibition) at 1uM” value is listed as -3.09%.

In the case of `CCN1CCN(Cc2cccnc2)CC1`, the “hERG current change (%, negative = inhibition) at 1uM” value was 11.9%.

Take `Cc1ccc(S(=O)(=O)Nc2ccc(N3CCCCC3)cc2)cc1`: the “hERG current change (%, negative = inhibition) at 1uM” value is 15.5%.

In the case of `COc1cccc(NP(=O)(Oc2ccccc2Cl)Oc2ccccc2Cl)c1`, the “hERG current change (%, negative = inhibition) at 1uM” value came to 8.66%.

Consider `CCn1c(=O)cc(OCC(=O)Nc2ccc3c(c2)OCCO3)c2ccccc21`, for which the “hERG current change (%, negative = inhibition) at 1uM” value is 10.7%.

Take `COc1ccccc1NC(=O)Nc1ccc2c(c1)OCCO2`: the “hERG current change (%, negative = inhibition) at 1uM” value is 17.6%.

As to `COc1cc2c(cc1[N+](=O)[O-])n(C(C)C)c(=O)n2C(C)C`, the “hERG current change (%, negative = inhibition) at 1uM” value is -21.8%.

As to `Cc1ccc(C)n1-n1c(C)nc2sc3c(c2c1=O)CCCCC3`, the “hERG current change (%, negative = inhibition) at 1uM” value was -1.26%.

With `Cc1cc(NC(=O)Nc2ccccc2[N+](=O)[O-])no1`, the “hERG current change (%, negative = inhibition) at 1uM” value was 9.68%.

For the compound `CCOC(=O)c1[nH]c(C)c(C(=O)Nc2ccc(C)c(Cl)c2)c1C`, the “hERG current change (%, negative = inhibition) at 1uM” value is on record as 6.95%.

Take `Cc1ccc(NS(=O)(=O)c2ccc(CCC(=O)N3CCOCC3)cc2)cc1`: the “hERG current change (%, negative = inhibition) at 1uM” value was determined as 3.9%.

In the case of `COc1ccc(Nc2nc(C)cc(C)c2C(N)=O)cc1`, the “hERG current change (%, negative = inhibition) at 1uM” value was 4.79%.

As to `COc1cc2c(cc1OC)/C(=C/C(=O)c1ccc(NC(C)=O)cc1)NCC2`, the “hERG current change (%, negative = inhibition) at 1uM” value is 13.2%.

With `Cc1c(NC(=O)CSc2nncn2-c2ccccc2)c(=O)n(-c2ccccc2)n1C`, the “hERG current change (%, negative = inhibition) at 1uM” value is on record as 24.4%.

As to `COC(=O)c1sc2ccccc2c1-n1cccc1C(=O)C(=O)Nc1ccccc1`, the “hERG current change (%, negative = inhibition) at 1uM” value is on record as -2.13%.

Take `COC(=O)CNC(=O)CN1C(=O)NC2(CCCc3ccccc32)C1=O` (stereo not drawn): the “hERG current change (%, negative = inhibition) at 1uM” value stood at 11.7%.

As for `COc1cc(C(c2c(O)cc(C)[nH]c2=O)c2c(O)cc(C)[nH]c2=O)ccc1O`, the “hERG current change (%, negative = inhibition) at 1uM” value is reported as -0.407%.

With `Cc1onc(-c2ccccc2Cl)c1C(=O)OCc1nnc(-c2ccccc2)o1`, the “hERG current change (%, negative = inhibition) at 1uM” value turned out to be 3.84%.

As to `COc1ccc(-n2c(SCC(=O)Nc3ccccc3)nc3c(c2=O)SCC3)cc1`, the “hERG current change (%, negative = inhibition) at 1uM” value is given as 10.7%.

Regarding `COc1ccc(NC(=O)CSc2ccc3nnc(-c4ccccn4)n3n2)cc1OC`, the “hERG current change (%, negative = inhibition) at 1uM” value is 7.61%.

`CCc1ccc(CN(C(=O)COc2c(C)cccc2C)C2CCS(=O)(=O)C2)cc1` (stereo not drawn): the “hERG current change (%, negative = inhibition) at 1uM” value was 16.6%.

Take `CC(=O)Nc1ccc(S(=O)(=O)NCCC(=O)NCc2ccncc2)cc1`: the “hERG current change (%, negative = inhibition) at 1uM” value is reported as -20.4%.

In the case of `CCOC(=O)c1c(C2COc3ccccc3O2)csc1NC(=O)c1ccccc1` (stereo not drawn), the “hERG current change (%, negative = inhibition) at 1uM” value stood at 23.3%.

As for `COc1cc(C(=O)N2CCN(C(=O)c3ccccc3)CC2)cc(OC)c1OC`, the “hERG current change (%, negative = inhibition) at 1uM” value worked out at 9.28%.

`O=C(NCCCn1ccnc1)c1ccc(NS(=O)(=O)c2ccc(Cl)c(Cl)c2)cc1`: the “hERG current change (%, negative = inhibition) at 1uM” value is listed as 19%.

For the compound `N#Cc1ccc(OCCN2CCc3ccccc3C2)cc1`, the “hERG current change (%, negative = inhibition) at 1uM” value is reported as -2.03%.

Regarding `COc1ccc(OC)c(S(=O)(=O)Nc2ccc(CC(=O)O)cc2)c1`, the “hERG current change (%, negative = inhibition) at 1uM” value was -5.58%.

With `CC1(C)CC(=NNC(=O)c2n[nH]c3c2CCC3)CC(C)(C)N1`, the “hERG current change (%, negative = inhibition) at 1uM” value was found to be 10.1%.

Turning to `CCOc1ccc(CCNc2nc3ccccc3n3c(C)nnc23)cc1OCC`, the “hERG current change (%, negative = inhibition) at 1uM” value is 9.92%.

On to `CC(=O)c1cccc(N(CC(=O)Nc2ccc(S(=O)(=O)N3CCCC3)cc2)S(C)(=O)=O)c1`, for which the “hERG current change (%, negative = inhibition) at 1uM” value was determined as 10.5%.

Take `Oc1ccc(Cl)cc1-c1cc(-c2ccco2)[nH]n1`: the “hERG current change (%, negative = inhibition) at 1uM” value came out at 10.7%.

`COc1ccc(S(=O)(=O)N/N=C(/C)c2ccc(Cl)cc2)cc1`: the “hERG current change (%, negative = inhibition) at 1uM” value turned out to be 4.56%.

With `O=C(/C=C/c1ccccc1)C1=C(O)C(=O)N(CCO)C1c1ccc2c(c1)OCO2` (stereo not drawn), the “hERG current change (%, negative = inhibition) at 1uM” value is recorded as 16.7%.

Take `Cc1ccc(/C=C/C(=O)c2ccc(N3CCOCC3)cc2)s1`: the “hERG current change (%, negative = inhibition) at 1uM” value is given as 12.6%.
